Data on 50 compounds can be found in PMC6919601, “Identification of Plasmodium dipeptidyl aminopeptidase allosteric inhibitors by high throughput screening” (PLoS ONE, 2019).

Among all 110,000 compounds or so, about 230 (0.21%) showed an effect of 50% or more. This is one part of the list.
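Note: 30 min substrate incubation versus DMSO and 10 µM JCP410 controls.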

In this test the target is DPAP1 (Plasmodium falciparum, UniProt Q8IIJ9). As to the kind of experiment: primary screen, percent inhibition; read by cleavage of a fluorogenic dipeptide substrate; higher = more effect of the substance. Further details: species or system P. falciparum D10 trophozoite lysates; single well.
DPAP1, sequence (Q8IIJ9 whole entry, looked up): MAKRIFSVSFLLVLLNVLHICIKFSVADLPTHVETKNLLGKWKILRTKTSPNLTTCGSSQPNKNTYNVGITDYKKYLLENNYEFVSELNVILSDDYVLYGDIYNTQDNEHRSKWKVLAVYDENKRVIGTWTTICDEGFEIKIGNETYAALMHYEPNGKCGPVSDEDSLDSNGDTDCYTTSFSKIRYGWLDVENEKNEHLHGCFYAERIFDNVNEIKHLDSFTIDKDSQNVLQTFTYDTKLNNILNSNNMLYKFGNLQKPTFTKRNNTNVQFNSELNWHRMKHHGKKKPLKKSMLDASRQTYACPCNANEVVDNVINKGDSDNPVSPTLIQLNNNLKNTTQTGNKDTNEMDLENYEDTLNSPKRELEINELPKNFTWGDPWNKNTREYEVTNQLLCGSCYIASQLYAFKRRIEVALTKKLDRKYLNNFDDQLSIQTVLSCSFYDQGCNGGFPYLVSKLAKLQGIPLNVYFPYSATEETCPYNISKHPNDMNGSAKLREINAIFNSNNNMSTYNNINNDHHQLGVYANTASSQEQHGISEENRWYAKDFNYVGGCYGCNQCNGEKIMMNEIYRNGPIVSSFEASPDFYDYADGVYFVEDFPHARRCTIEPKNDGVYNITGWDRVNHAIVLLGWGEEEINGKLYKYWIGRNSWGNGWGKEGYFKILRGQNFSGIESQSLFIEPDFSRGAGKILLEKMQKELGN
Consider `CCc1nnc(NC(=O)CSc2nnc(CNC(=O)c3ccccc3F)o2)s1`, for which the “% Inhibition @ 10 uM” value is reported as -3.39%.

Take `CCOC(=O)c1cnc2nc(-c3ccccc3)nn2c1O`: the “% Inhibition @ 10 uM” value is recorded as 2.62%.

Regarding `CCCCOc1ccccc1N1C(=O)C2=C(SCCS2)C1=O`, the “% Inhibition @ 10 uM” value is reported as 10%.

Turning to `C[n+]1cnc(-c2ccccc2)cc1-c1ccccc1`, the “% Inhibition @ 10 uM” value is -2.8%.

In the case of `O=C(Cc1c(O)nc2ccccc2c1O)NCCc1ccccc1`, the “% Inhibition @ 10 uM” value is recorded as 6.48%.

For `Cc1ccc(C2C(C#N)=C(N)Oc3c2oc(CO)cc3=O)o1` (centres unmarked), the “% Inhibition @ 10 uM” value is listed as -2.78%.

As to `Cc1cccc(NS(=O)(=O)Cc2ccccc2)n1`, the “% Inhibition @ 10 uM” value is -1.85%.

For the compound `Nc1nc(-c2cccnc2)nc(-c2cccnc2)n1`, the “% Inhibition @ 10 uM” value amounted to 3.42%.

On to `Cc1ccc(N(C(=O)c2ccccc2)C2CCS(=O)(=O)C2)cc1C` (centres unmarked), for which the “% Inhibition @ 10 uM” value was found to be 6%.

For the compound `Cc1nn(Cc2ccccc2)c(C)c1NC(=O)c1cc(-c2ccc3c(c2)OCO3)on1`, the “% Inhibition @ 10 uM” value is given as -1.21%.

Take `CCOC(=O)C1=CN(C(C)C)C=C(C(=O)OCC)C1c1ccc2c(c1)OCO2`: the “% Inhibition @ 10 uM” value is listed as 4.99%.

With `O=C(NC1CCCC1)c1cc2cccc3c2n1CCS3`, the “% Inhibition @ 10 uM” value was found to be 1.98%.

For the compound `CCN1CCC(C#N)(NC(=O)[C@H](C[C@H](C)c2ccccc2OC)NC(=O)OCCC2CCCCC2)CC1`, the “% Inhibition @ 10 uM” value was -1.5%.

On to `COc1ccc(Cn2nnc3c(C)nnc(O)c32)cc1`, for which the “% Inhibition @ 10 uM” value turned out to be 2.41%.

In the case of `Cc1cc(C)c(C2C(C#N)=C(N)Oc3nc(O)nc(O)c32)c(C)c1` (centres unmarked), the “% Inhibition @ 10 uM” value is on record as -2.51%.

As for `COc1ccc(N2CCN(Cc3ccccc3)CC2)cc1`, the “% Inhibition @ 10 uM” value was 1.2%.

`CCCCOc1ccccc1C1C(C(=O)OC)=CN(C(C)C)C=C1C(=O)OC`: the “% Inhibition @ 10 uM” value was -5.28%.

For `CCOc1ccccc1C(=O)Nc1ccc(F)c(F)c1`, the “% Inhibition @ 10 uM” value was 2.22%.

`CCCNCc1c(C(=O)O)n(Cc2ccc(F)cc2Cl)c2cc(OC)ccc12`: the “% Inhibition @ 10 uM” value came out at 6.94%.

For `COC(=O)c1ccc(CSc2nn3c(SCc4ccc(C(=O)OC)cc4)nnc3s2)cc1`, the “% Inhibition @ 10 uM” value is on record as 5.98%.

`Cc1nc2c3ccccc3n3c(CCCC(=O)N4CCN(C(=O)c5ccco5)CC4)nnc3n2n1`: the “% Inhibition @ 10 uM” value is -4.69%.

Take `N#CCNC(=O)C(CCCc1ccccc1)CS(=O)(=O)Cc1ccccc1` (centres unmarked): the “% Inhibition @ 10 uM” value is -5.21%.

As to `Cc1cccc(C)c1NC(=O)CNc1ccccc1`, the “% Inhibition @ 10 uM” value is on record as -1.97%.

`CN1C(=O)CC(c2ccccc2)C2=C1CC(C)(C)CC2=O` (centres unmarked): the “% Inhibition @ 10 uM” value is on record as -2.2%.

Take `CCc1ccc(C2=CC(c3cc(OC)c(OC)c(OC)c3)n3nnnc3N2)cc1` (centres unmarked): the “% Inhibition @ 10 uM” value is on record as -9.03%.

For the compound `CN(CCc1ccccn1)Cc1ccc(C(F)(F)F)cc1`, the “% Inhibition @ 10 uM” value turned out to be 3.47%.

Consider `Cc1ccc(C(=O)NC2CCC(NC(=O)c3ccc(C)cc3)CC2)cc1` (centres unmarked), for which the “% Inhibition @ 10 uM” value is reported as -5.6%.

In the case of `CC(C)(c1ccccc1)c1ccc(OCCN2CCOCC2)cc1`, the “% Inhibition @ 10 uM” value was -0.289%.

Take `CC1=C(C(=O)Nc2ccccc2C)C(c2ccccc2O)NC(=O)N1C` (centres unmarked): the “% Inhibition @ 10 uM” value is listed as -5.16%.

For `O=C(Nc1cccc2c1CCCC2)c1ccccc1Br`, the “% Inhibition @ 10 uM” value was 2.13%.

Regarding `COCc1nn2cc(-c3ccc(C)c(C)c3)nc2s1`, the “% Inhibition @ 10 uM” value stood at 6.85%.

As to `CCS(=O)(=O)c1nc(S(=O)(=O)c2ccc(Cl)cc2)c(N2CCC(O)CC2)s1`, the “% Inhibition @ 10 uM” value is 1.15%.

Consider `COc1ccc(S(=O)(=O)N2Cc3ccccc3CC2C(=O)NC2CCCCC2)cc1` (centres unmarked), for which the “% Inhibition @ 10 uM” value was determined as 2%.

In the case of `Cc1ccccc1CN(c1ccc(C(=O)NCC2CCCO2)cc1)S(C)(=O)=O` (centres unmarked), the “% Inhibition @ 10 uM” value amounted to 0.245%.

With `Cc1onc(-c2ccccc2Cl)c1C(=O)Nc1cccc(C(=O)O)c1`, the “% Inhibition @ 10 uM” value is recorded as -13.3%.

Consider `CCOC(=O)c1c(S(=O)(=O)N2CCC(N(C)C3CCCCC3)CC2)c(C)n(C)c1C`, for which the “% Inhibition @ 10 uM” value is on record as -3.39%.

For the compound `COc1ccc(-n2cc(-c3ccccc3)c3c(N4CCC5(CC4)OCCO5)ncnc32)cc1`, the “% Inhibition @ 10 uM” value is reported as -1.62%.

In the case of `N#Cc1c(NC(=O)c2cc(-c3ccc4c(c3)OCO4)on2)sc2c1CCCC2`, the “% Inhibition @ 10 uM” value is -3.77%.

Take `CCc1cc2c(Nc3ccc(OC)cc3)ncnc2s1`: the “% Inhibition @ 10 uM” value was -2.48%.

As to `CCCC1CCC(C2=N/C(=C\c3ccc(OC)cc3)C(=O)O2)CC1` (centres unmarked), the “% Inhibition @ 10 uM” value is 3.8%.

Take `OC(c1ccncc1)(c1ccc(Cl)cc1)c1cc[nH]n1` (centres unmarked): the “% Inhibition @ 10 uM” value stood at 3.53%.

In the case of `CCOc1ccc(CCNC(=O)Cn2nc(CC)n3c(cc4sc(C)cc43)c2=O)cc1OCC`, the “% Inhibition @ 10 uM” value was 4.95%.

As for `COc1ccc(S(=O)(=O)Nc2ccc(NC(C)=O)cc2)cc1`, the “% Inhibition @ 10 uM” value is recorded as -5.54%.

Regarding `CC(=O)N(CC(O)c1ccccc1)C1CC(=O)N(c2ccc(Cl)cc2)C1=O` (centres unmarked), the “% Inhibition @ 10 uM” value is reported as -4.97%.

Turning to `CC(C)C[C@H](NC(=O)OCc1ccccc1CCc1ccccc1)C(=O)NCC#N`, the “% Inhibition @ 10 uM” value was found to be 1.71%.

`COc1ccc(/C=C2N=C(/C=C/c3ccc(C)cc3)OC\2=O)c(OC)c1OC`: the “% Inhibition @ 10 uM” value is given as 4.22%.

For `CC1=C(c2ccc(C(C)C)cc2)S(=O)(=O)N=C1NCc1ccccc1Cl`, the “% Inhibition @ 10 uM” value came out at 0.623%.

For `COc1cccc2c1NC(c1cccc(Cl)c1Cl)C1CC=CC21` (centres unmarked), the “% Inhibition @ 10 uM” value stood at 1.27%.

For `Cc1noc(/C=C/N(C)C)c1S(=O)(=O)N1CC=C(c2ccccc2)CC1`, the “% Inhibition @ 10 uM” value was found to be 21.8%.

In the case of `CC1CCCCC1NC1CCN(C)CC1` (centres unmarked), the “% Inhibition @ 10 uM” value is listed as -5.9%.
